Measured values reported in the antibiotic and cytotoxicity screens of Wong et al. (2023).
This is one part of the list.

Tests used:
HSkMC = human skeletal muscle cells; test: cytotoxicity call (relative viability < 0.9); conditions: 10 µM
HepG2 = test: cytotoxicity call (relative viability < 0.9); conditions: 10 µM
S. aureus RN4220 = test: growth inhibition call (relative growth <= 0.2); conditions: 50 µM

Structure (SMILES) | cytotoxicity call (HSkMC) | cytotoxicity call (HepG2) | growth inhibition call (S. aureus RN4220)
C[C@@H]1CN([C@@H](C)CO)S(=O)(=O)c2ccc(C#CC3(O)CCCC3)cc2O[C@H]1CN(C)C(=O)Cc1ccccc1 | inactive | inactive | inactive
COc1ccc(C#Cc2cnc3c(c2)C(=O)N([C@H](C)CO)C[C@H](C)[C@H](CN(C)S(C)(=O)=O)O3)cc1OC | inactive | inactive | inactive
C[C@@H]1CN([C@@H](C)CO)C(=O)Cc2cc(NC(=O)Cn3cnnn3)ccc2O[C@H]1CN(C)S(=O)(=O)c1cn(C)cn1 | inactive | inactive | inactive
CC(C)NC(=O)Nc1cccc2c1O[C@@H](CN(C)Cc1ccc(-c3ccccc3)cc1)[C@H](C)CN([C@H](C)CO)C2=O | inactive | inactive | inactive
Oc1ccc(F)c2ccccc12 | inactive | inactive | inactive
Cc1noc(C)c1NC(=O)N[C@H]1C=C[C@H](CC(=O)NCCCN(C)C)O[C@@H]1CO | inactive | inactive | inactive
NC[C@H]1COC2(CCCCC2)O1 | inactive | inactive | inactive
C[C@H]1CN([C@@H](C)CO)C(=O)Cc2cc(NC(=O)CCC(F)(F)F)ccc2O[C@H]1CN(C)Cc1ccc(C(=O)Nc2ccccc2N)cc1 | inactive | active | inactive
C[C@H]1CN([C@@H](C)CO)C(=O)c2cccc(NS(=O)(=O)c3cccs3)c2O[C@H]1CN(C)Cc1ccc(Oc2ccccc2)cc1 | inactive | inactive | inactive
C[C@@H]1CN([C@@H](C)CO)C(=O)Cc2cc(NS(=O)(=O)c3cccs3)ccc2O[C@H]1CN(C)S(=O)(=O)c1cccs1 | inactive | inactive | inactive
C[C@@H]1CCCCO[C@@H](CN(C)Cc2ccc(C(=O)O)cc2)[C@H](C)CN([C@H](C)CO)C(=O)c2cc(NC(=O)Nc3cccc4ccccc34)ccc2O1 | inactive | inactive | inactive
Cc1ccc(S(=O)(=O)Nc2ccc3c(c2)CC(=O)N([C@H](C)CO)C[C@@H](C)[C@@H](CN(C)C(=O)Nc2cccc4ccccc24)O3)cc1 | inactive | inactive | inactive
COc1ccc(NC(=O)N(C)C[C@@H]2OCCCC[C@H](C)Oc3ccc(NC(=O)NC4CCCCC4)cc3C(=O)N([C@H](C)CO)C[C@@H]2C)cc1 | inactive | inactive | inactive
C[C@H]1CCCCO[C@H](CN(C)C(=O)Cc2ccccc2)[C@@H](C)CN([C@@H](C)CO)C(=O)c2cc(NC(=O)Nc3ccc4c(c3)OCO4)ccc2O1 | inactive | inactive | inactive
COc1ccc(-c2coc3cc(O)cc(O)c3c2=O)cc1 | inactive | inactive | inactive
C[C@@H]1CN([C@H](C)CO)C(=O)c2cc(NC(=O)Nc3ccccc3)ccc2O[C@H]1CN(C)Cc1ccc(Cl)c(Cl)c1 | inactive | inactive | inactive
COC(=O)c1c2oc(c1C(=O)OC)C(=O)N[C@@H](Cc1ccccc1)Cn1cc(nn1)CNC(=O)[C@@H](Cc1ccccc1)NC(=O)N[C@@H](COC(=O)NCCCCCC(=O)NO)CC2 | inactive | inactive | inactive
Cc1ccc(S(=O)(=O)Nc2ccc3c(c2)C(=O)N([C@H](C)CO)C[C@H](C)[C@@H](CN(C)S(=O)(=O)c2ccc(C)cc2)OCCCC[C@H](C)O3)cc1 | inactive | inactive | inactive
Cn1cnc(S(=O)(=O)N2C[C@H](O)COC[C@H]3O[C@H](CC(=O)NCc4ccc(F)cc4)CC[C@@H]32)c1 | inactive | inactive | inactive
COCC(=O)Nc1ccc2c(c1)OC[C@H](C)N(Cc1cccc(F)c1)C[C@H](C)[C@@H](OC)CN(C)C2=O | inactive | inactive | inactive
COc1ccc(S(=O)(=O)N2CCC(N3C[C@H]4CC[C@@H](N)[C@@H]4C3)CC2)cc1 | inactive | inactive | inactive
COCCOC(=O)N1C(=O)[C@@]2(c3cc(C#Cc4ccc(OC)cc4)ccc31)[C@H](c1ccc(OCCO)cc1)N1[C@H](c3ccccc3)[C@H](c3ccccc3)OC(=O)[C@H]1[C@@H]2C(=O)N1CCN(c2ncccn2)CC1 | inactive | inactive | inactive
CCCC[C@H](NC(C)=O)C(=O)N[C@@H](CCC(N)=O)C(=O)N[C@@H](Cc1c[nH]cn1)C(=O)N[C@H](Cc1ccccc1)C(=O)N[C@@H](CCCNC(=N)N)C(=O)N[C@H](Cc1c[nH]c2ccccc12)C(=O)NCC(N)=O | inactive | inactive | inactive
C[C@@H]1CN([C@@H](C)CO)S(=O)(=O)c2ccc(C#Cc3ccccc3F)cc2O[C@@H]1CN(C)CC1CCOCC1 | inactive | inactive | inactive
COc1ccc(NC(=O)Nc2ccc3c(c2)CC(=O)N([C@@H](C)CO)C[C@@H](C)[C@@H](CN(C)C(=O)Nc2ccc(C(F)(F)F)cc2)O3)cc1 | inactive | inactive | inactive
COc1ccc(S(=O)(=O)N(C)C[C@@H]2Oc3ccc(NC(=O)CCN4CCOCC4)cc3CC(=O)N([C@H](C)CO)C[C@@H]2C)cc1 | inactive | inactive | inactive
CCCC#Cc1cnc2c(c1)C(=O)N([C@H](C)CO)C[C@H](C)[C@@H](CN(C)S(=O)(=O)c1cccc(OC)c1)O2 | inactive | inactive | inactive

Structure (SMILES) | cytotoxicity call (HSkMC) | cytotoxicity call (HepG2) | growth inhibition call (S. aureus RN4220)
C[C@@H]1CN([C@H](C)CO)C(=O)c2cc(NC(=O)Cc3ccccc3)ccc2O[C@@H](C)CCCCO[C@H]1CN(C)S(=O)(=O)c1cccs1 | inactive | inactive | inactive
C[C@@H]1CN([C@@H](C)CO)C(=O)c2cc(NC(=O)c3ccncc3)ccc2O[C@H]1CN(C)Cc1ccncc1 | inactive | inactive | inactive
COc1ccc([Si](C)(C)[C@H]2[C@H](CCO)O[C@@]3(C(=O)N(Cc4ccc(N5C(=O)COc6ccccc65)cc4)c4ccccc43)[C@@H]2C)cc1 | inactive | active | inactive
C[C@H](CO)N1C[C@H](C)[C@H](CN(C)Cc2ccc3c(c2)OCO3)OCCCC[C@H](C)Oc2ccc(NC(=O)Nc3cccc4ccccc34)cc2C1=O | active | active | inactive
COc1ccc(C#Cc2ccc3c(c2)[C@]2(C(=O)N3)[C@H](C(=O)O)[C@H]3C(=O)O[C@H](c4ccccc4)[C@H](c4ccccc4)N3[C@@H]2c2ccccc2OCCO)cc1 | inactive | inactive | inactive
COc1ccc(NC(=O)Nc2cccc3c2O[C@@H](CN(C)S(=O)(=O)c2cn(C)cn2)[C@@H](C)CN([C@H](C)CO)C3=O)cc1 | inactive | inactive | inactive
N#Cc1cc(F)c(N)c2[nH]cc(S(=O)(=O)c3ccc(NC(=O)c4cc(S(N)(=O)=O)cs4)cn3)c12 | inactive | inactive | inactive
O=C(CN1CCOCC1)N[C@@H]1CC[C@@H](CCNC(=O)C2CCCCC2)O[C@@H]1CO | inactive | inactive | inactive
C[C@@H]1CN([C@H](C)CO)C(=O)c2cc(NS(C)(=O)=O)ccc2O[C@@H](C)CCCCO[C@H]1CN(C)Cc1ccc(Cl)c(Cl)c1 | inactive | active | inactive
C=C1CC[C@H]2[C@H](CN)[C@@H]([C@@]3(C)CC[C@H](O)C[C@@H]3CO)CC[C@]12C | inactive | inactive | inactive
Cc1noc(C)c1S(=O)(=O)N(C)C[C@@H]1Oc2ccc(NC(=O)C3CCCCC3)cc2CC(=O)N([C@@H](C)CO)C[C@@H]1C | inactive | inactive | inactive
CCC(=O)N(C)C[C@H]1Oc2ncc(C#C[C@H](C)O)cc2C(=O)N([C@@H](C)CO)C[C@@H]1C | inactive | inactive | inactive
CC(C)NC(=O)Nc1ccc2c(c1)C(=O)N([C@H](C)CO)C[C@H](C)[C@H](CN(C)C(=O)Nc1ccc(F)cc1)OCCCC[C@@H](C)O2 | inactive | inactive | inactive
C[C@@H]1CN([C@@H](C)CO)S(=O)(=O)c2ccc(C#Cc3cccnc3)cc2O[C@H]1CN(C)CC1CCOCC1 | inactive | inactive | inactive
C[C@H]1CN([C@@H](C)CO)C(=O)c2ccccc2-c2ccccc2CO[C@H]1CN(C)C(=O)Nc1ccc(F)cc1 | inactive | inactive | inactive
Cc1ccc(S(N)(=O)=O)cc1 | inactive | inactive | inactive
C[C@H](CO)N1C[C@H](C)[C@H](CN(C)Cc2ccccc2)Oc2ccc(NC(=O)Nc3cccc4ccccc34)cc2CC1=O | inactive | active | inactive
COc1ccccc1CNC(=O)C[C@@H]1CC[C@H]2[C@@H](COC[C@@H](O)CN2C(=O)Nc2ccc(Cl)cc2)O1 | inactive | inactive | inactive
Cc1c(Cl)cccc1Nc1ncccc1C(=O)O | inactive | inactive | inactive
C[C@@H]1CN([C@@H](C)CO)C(=O)Cc2cc(NC(=O)Nc3cccc4ccccc34)ccc2O[C@H]1CN(C)Cc1ccccc1 | inactive | inactive | inactive
C[C@H](CO)N1C[C@H](C)[C@H](CN(C)C(=O)C2CCCCC2)OCCCC[C@H](C)Oc2ccc(NC(=O)Nc3cccc4ccccc34)cc2C1=O | inactive | inactive | inactive
C[C@@H]1CCCCO[C@@H](CN(C)Cc2ccccc2)[C@@H](C)CN([C@@H](C)CO)C(=O)c2cc(NC(=O)NC3CCCCC3)ccc2O1 | inactive | active | inactive
C[C@H](NC(=O)C[C@@H]1C[C@@H]2c3cc(NC(=O)Nc4ccc(C(F)(F)F)cc4)ccc3O[C@@H]2[C@H](CO)O1)c1ccccc1 | inactive | inactive | inactive
C[C@H](CO)N1C[C@H](C)[C@@H](CN(C)C(=O)Nc2ccc(F)cc2)Oc2ccc(NC(=O)Cn3cnnn3)cc2C1=O | inactive | inactive | inactive
Cc1cc(C(=O)Nc2cccc3c2O[C@H](CN(C)C(=O)NC2CCCCC2)[C@@H](C)CN([C@@H](C)CO)C3=O)n(C)n1 | inactive | inactive | inactive
COc1ccc2c3c(n(c2c1)C)[C@@H](CO)N(C[C@]13CCN(CC1)C(=O)Nc1ccc(cc1F)F)C(=O)Nc1ccc(cc1)F | inactive | inactive | inactive
